In EP1469074B1, “Human calcium channel compositions and methods” (priority 1991, dated 1993):

Test system: human neuronal calcium channel α1D, α2 and β1 subunits, expressed in Xenopus laevis oöcytes
Assay: Two-electrode voltage clamp of barium currents in Xenopus laevis oöcytes coinjected with α1D, α2 and β1 transcripts
Assay type: cell-based

SMILES: COC(=O)C1=C(C)NC(C)=C([N+](=O)[O-])C1c1ccccc1C(F)(F)F (centres unmarked) [Bay K 8644]
- effect on barium currents (Bay K 8644, concentration not stated, also prolonged tail currents and hyperpolarizing shift in current activation): increased the magnitude of the currents

SMILES: COC(=O)C1=C(C)NC(C)=C(C(=O)OC)C1c1ccccc1[N+](=O)[O-] [nifedipine]
- fraction of the inward barium current blocked (nifedipine, concentration not given, n=7, 40 mM BaCl2 bath): 91 ± 6%
